Data as given in the supplement of paper PMC5499739.
In all, about 16,000 sequences were measured (“Z-score”: median about -0.37, highest 2% from about 3.2 on). Some of the results follow.

Test system: RBM10 RRM1-ZnF (GST-tagged construct)
Experiment: RNAcompete 7-mer binding Z-score; higher = stronger binding preference
Method in brief: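 In 1 ml Hepes pH 7.8 buffer with KCl, NaCl, glycerol, DTT, BSA and glutathione Sepharose beads, GST-tagged RBM10 constructs (20 pmol) were incubated for 30 min at 4°C with 1.5 nmol of a designed pool of 241 399 RNAs up to 41 nt. Four 2-min washes at 4°C followed, and bound RNA was detected by microarray hybridisation. Heptamer motif enrichment was expressed as a one-sided Z-score across probes containing each motif.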

Sequence | RNAcompete 7-mer binding Z-score
AGUUUGU | -0.223
GGCUAUU | -0.233
CUCAAAA | -0.675
GUCGCUC | -0.425
ACCUGGA | -0.366
UUCUGCU | -0.867
GCAGGGA | 2.92
CCGUUAG | -0.415
UAUGUCA | -0.282
GAGUGUC | 0.0333
CCUUACU | -0.886
GGCAUUC | -0.298
UUCUAAC | -0.73
CCUGCCG | -0.444
CUGUGUC | -0.61
GAGAACC | -0.275
UGGUCCU | -0.376
AAACUGC | -0.617
UAAUUAC | -0.649
CUGGGCG | 1.15
ACGGCAU | 0.153
CACGACU | -0.61
AGCGCCA | -0.262

Sequence | RNAcompete 7-mer binding Z-score
GGUUAUG | 1.69
GACGUUC | -0.74
CGAGUGA | 0.381
AAUGCUU | -0.678
UGCCCAC | -0.383
UGAGGAU | 1.81
AUCUAAA | -0.451
ACAGGUG | 1.91
AUUGUGU | -0.363
GGAGUUA | 1.66
CUCCAGU | -0.714
CUUUAUU | -0.811
GAGCGCA | -0.00246
CUCACCC | -0.646
AGAUAAC | -0.49
GGGACGC | 1.06
UGGUUGC | 0.758
UCGUUUG | -0.243
UCAUAAA | -0.552
GCUACCU | -0.766
GGGACCC | 0.797
ACAUCGA | -0.48
UCAACUA | -0.737

Sequence | RNAcompete 7-mer binding Z-score
ACCUGCC | -0.834
GCGUGUG | 0.621
GUGCCAG | 0.131
UUGAUAU | -0.379
GCGAUGU | 0.254
UGUCCAC | -0.558
ACGCCAA | -0.558
AUGGGCA | 2.11
AUACGCG | -0.311
CUACCGA | -0.604
CCGUACC | -0.694
AUAUUUC | -0.691
CAUCCGC | -0.847
ACUAAAA | -0.581
ACCUAAA | -0.798
GGCCUAC | -0.629
CUGUUAG | -0.545
UCCACUU | -0.883
CAUGCGC | -0.772
CGACAAU | -0.425
AUUGGUG | 2.27
GGGGUGU | 4.3
ACUCACC | -0.626

Sequence | RNAcompete 7-mer binding Z-score
GUUAGUC | -0.132
ACCUUCG | -0.815
AGCGCGU | -0.292
CUAGCGA | -0.347
AUGUGUU | 0.0723
CCAAAUC | -0.785
CUAAUUU | -0.867
AUGCUGU | -0.584
ACUGUCA | -0.584
UUAGAGC | -0.227
CUAAUUC | -0.834
AAUGGGA | 4.35
UCGCGGG | 1.31
GACGCGU | -0.142
UGUAAAA | -0.21
GAAAAGU | 0.504
GUACUGA | 0.0138
ACUCUCG | -0.785
CCUGUCC | -0.763
UGUCAGU | -0.0739
GGCACAC | 0.202
CUCUCUG | -0.769
AUCGCAG | -0.204

Sequence | RNAcompete 7-mer binding Z-score
CUACUCU | -0.727
AGAGACA | -0.0155
CCUAGCG | -0.496
UUUAAGC | -0.779
AAAGAAC | -0.0674
AGUUUCU | -0.711
CUGCGCA | -0.435
GUCGUGA | 0.215
CAGACUA | -0.503
CACACAG | -0.279
CCCAAUA | -0.711
CCGGCCA | -0.727
UCUGCCC | -0.597
CAGAAUC | -0.461
CAUCUUA | -0.75
CGCGAUA | -0.295
CAUCCCU | -0.737
ACGCCAC | -0.454
GGAUAUA | 1.53
GCCGCAA | -0.464
CAACAUA | -0.461
UGUGUUC | -0.597
UCGGCAU | -0.402

Sequence | RNAcompete 7-mer binding Z-score
ACCACGA | -0.428
AGGCUUG | 0.00404
AUCCAUG | -0.613
CCAAUUC | -0.798
UAUGACG | 0.0398
UCUUUUG | -0.662
CGUACUC | -0.591
CAAAUCU | -0.824
UCCUUGU | -0.75
GCGGUAU | 0.787
UACUGCU | -0.558
GUGACUU | -0.305
CGAGGCC | -0.184
CUUAAAA | -0.724
UCUUUCC | -0.883
GGCAUUA | 0.0398
GCGAGUA | 0.394
UCGGUAU | -0.256
UGGAAUA | 1.46
CAAGCCU | -0.854
AGGCUUU | -0.535
UUGACGG | 0.42
GAUUAAG | 0.68

Sequence | RNAcompete 7-mer binding Z-score
UUCGAAA | -0.688
CUAUGCU | -0.711
ACAUUCA | -0.727
ACCGUAC | -0.655
AACUUGA | -0.607
AUUGUAU | -0.483
AGCUCUG | -0.691
AGGUUCU | -0.337
UGAAGGU | 2.57
UCUACUA | -0.737
UGGGCCA | 0.618
ACGGAGA | 1.21
CCGUGCU | -0.678
AUAGGCU | -0.00246
GUGCCAA | -0.197
GGUGUAU | 1.41
AACUCCA | -0.526
CUCUUCA | -0.75
UAAGUGC | -0.23
UAAAUGU | -0.311
CUUUAUG | -0.763
UUGCGAA | -0.272
UAGAAUA | -0.168

Sequence | RNAcompete 7-mer binding Z-score
GUCCAGU | -0.311
GCACCCU | -0.496
UCUUCUG | -0.805
AACCUUC | -0.993
CUUUCAG | -0.72
ACGAGCC | -0.639
CACCAUG | -0.532
CGGGACG | 1.57
UUUUUCU | -0.591
GGUUAAG | 2.1
GACGGAC | 0.511
CGCGACG | -0.347
CCAAGGA | 0.319
UGACAUU | -0.604
CCCCCGA | -0.116
GCCAGUA | -0.288
CGCCAGA | -0.552
ACCAAGG | 0.352
AAGGCUU | 0.03
CAUUGAC | -0.318
UCGAUAA | -0.633
CAUUCGA | -0.795
